Test results as given in PubChem BioAssay AID686979 (National Center for Advancing Translational Sciences (NCATS), 2013).
Among all 420,000 compounds or so, about 50,000 (12%) were called active. Inconclusive means that the source gave no clear call. Such entries were picked first, then a sample of the others. The call rests on the fitted dose curve; in most records, active means well fitted inhibition curve with a large enough effect; inconclusive means small, poorly fitted or top-dose-only effect; inactive means flat fitted curve, though single readings scatter. Potencies of inconclusive entries are left out as doubtful fits.

Experiment: qHTS for Inhibitors of human tyrosyl-DNA phosphodiesterase 1 (TDP1): qHTS in cells in presence of CPT; further: nearly all actives have a fitted effect of over 55% in size
Conditions: chicken DT40 Tdp1-/-;hTDP1 cells + 20 nM CPT, ATP luminescence, 48 h; activity change, negative = growth inhibition: at 46.2 µM (top of the series) unless noted
Procedure, shortened: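 Chicken DT40 Tdp1-/- cells complemented with human TDP1, 400 cells/well, exposed to compounds plus 20 nM camptothecin for at least 48 h at 37 C; viability read as ATP content by CellTiter-Glo luminescence.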
On the % scale 0 is the no-effect control and ±100 the full control effect; potency means the concentration at half of the fitted maximal effect; tags describe the fitted curve by direction and shape.

Structure (SMILES) | Potency | activity change, negative = growth inhibition
CCOC(=O)C1=CN(Cc2cccc(F)c2)S(=O)(=O)N(C)C1c1ccc(F)c(Cl)c1 (centres undefined) | inconclusive [inhibitor, single point] | 
O=C(CSc1ccc(-c2ccco2)nn1)Nc1ccccc1F | inconclusive [inhibitor, single point] | 
NCCCC(=O)N1c2ccccc2Sc2ccc(Cl)cc21 | inconclusive [inhibitor, single point] | 
CC(C)C(=O)NC(=S)Nc1nnn(C)n1 |  | inactive: 2.06%
COc1ccccc1-c1nc(-c2ccc(C)nc2OC)no1 |  | inconclusive: -33.9% [inhibitor]
COC(=O)c1cc(NC(=O)/C=C/c2ccc3c(c2)OCO3)cc(C(=O)OC)c1 | inconclusive [inhibitor, single point] | 
C/C(N)=C(/C#N)C(=O)COC(=O)CNS(=O)(=O)c1ccc(C)cc1 |  | inactive: 7.08%
COCc1c(C#N)c(NCc2cc(OC)c(OC)c(OC)c2)nc(C)c1[N+](=O)[O-] | active: 18.4 µM | 
CCn1cc(C(=O)N2CCCC2)c(=O)c2cc(S(=O)(=O)N3CCOCC3)ccc21 |  | inactive: -22.1%
COc1ccc(C2(c3ccc(OC)cc3)NC(=O)N(CC(=O)Nc3ccc(N4CCOCC4)cc3)C2=O)cc1 | inconclusive [inhibitor, single point] | 
CC(C)CC(C(=O)Nc1oc(-c2ccco2)c(-c2ccco2)c1C#N)N1C(=O)c2ccccc2C1=O (centres undefined) |  | inactive: -0.765%
COc1ccc(Nc2nc(-c3ccc(OC)cc3)c(CCC(=O)O)s2)cc1 |  | inactive: 7.51%
CC(=O)c1ccc(N2CCN(CC(=O)Nc3ccccc3N3CCOCC3)CC2)cc1 | active: 14.6 µM | 
CCOCCCNCC(=O)NC1(C)C2CCC(C2)C1(C)C (centres undefined) | inconclusive [inhibitor, single point] | 
CCOC(=O)C1CCCN(C(=O)c2[nH]c3ccccc3c2Sc2ccc(Cl)cc2)C1 (centres undefined) | inconclusive [inhibitor, single point] | 
COc1cc(OC)cc(-c2nc3cc(C)ccc3o2)c1 | inconclusive [inhibitor, single point] | 
CCOC(=O)c1cnc2ccc(OC)cc2c1Nc1ccc(N2CCN(C)CC2)cc1 | active: 23.1 µM | 
C/C(=C\COc1cc(=O)[nH]c2ccccc12)CCC(O)C(C)(C)O (centres undefined) | inconclusive [inhibitor, partial curve] | 
C/C=C1\COC(C(=O)NCc2cccc(OC)c2OC)(C(F)(F)F)C=C1C=C1CCCCC1 (centres undefined) | active: 14.6 µM | 
Cc1cccc(C)c1NC(=O)CN(C)C(=O)c1ccccc1SCC(=O)N1CCCC1 | inconclusive [inhibitor, partial curve] | 
COc1ccc(Cc2c(-c3ccc(C)cc3)nc3c4ccccc4ccn23)c(C)c1 | inconclusive [inhibitor, single point] | 
O=C(N[C@@H](Cc1c[nH]c2ccccc12)C(=O)O)C1CCN(S(=O)(=O)c2ccc(Cl)cc2)CC1 |  | inactive: 1.51%
O=C(Nc1ccc(S(=O)(=O)N2CCCCC2c2cccnc2)cc1)c1c(F)cccc1F (centres undefined) | inconclusive [inhibitor, single point] | 

Structure (SMILES) | Potency | activity change, negative = growth inhibition
CC(C)(C)CC(C)(C)SSc1n[nH]c(=S)s1 | inconclusive [inhibitor, single point] | 
COc1ccc(C(=O)NCC(c2ccco2)S(=O)(=O)c2cccs2)cc1OC (centres undefined) | inconclusive [inhibitor, single point] | 
CC(C)(C)C1=C(C#N)C(c2cccnc2)C(C#N)=C(N)O1 (centres undefined) | inconclusive [inhibitor, partial curve, poor fit] | 
O=S(=O)(c1ccccc1)N1CCN(C(=S)Nc2ccc(Br)cc2)CC1 | inconclusive [inhibitor, partial curve, poor fit] | 
CCOC(=O)CNC(c1ccccc1)c1cc(Br)ccc1NC(C)=O (centres undefined) | inconclusive [inhibitor, single point] | 
O=C(c1cccs1)N1CCC(Cc2ccccc2)CC1 |  | inactive: 6.54%
COc1ccc(-c2ccc(-c3cc(=O)oc4c(C(C)C)ccc(C)c34)cc2)cc1 | active: 23.1 µM | 
COCc1cc(Sc2ccc(Cl)cc2)nc(C)n1 | inconclusive [inhibitor, single point] | 
CCN1C(=O)[C@H]2[C@@H](c3ccc(C)cc3)N[C@]3(CCCN(Cc4ccc(C)cc4)C3=O)[C@H]2C1=O | inconclusive [inhibitor, full curve, poor fit] | 
CC(N)=NCCCC[C@H](N)C(=O)O |  | inactive: 0.759%
O=C1Nc2ccc(Br)cc2C1=C1CCCCC1 | inconclusive [inhibitor, single point] | 
O=S(=O)(c1ccc(OCC(O)CN2CCC(Cc3ccccc3)CC2)cc1)N1CCOCC1 (centres undefined) |  | inactive: -23.5%
Cc1nc2ccccn2c1C(=O)NNC(=S)Nc1ccc(Cl)cc1 | inconclusive [inhibitor, single point] | 
Cn1cccc1C(=O)N1CCC2(CC1)CN(C(c1ccccc1)c1ccccc1)C2 | inconclusive [inhibitor, single point] | 
COc1cccc(-c2nc(N3CCCC3)c3ccccc3n2)c1O | active: 18.4 µM | 
COc1ccc2[nH]cc(CCCN3C(=O)c4ccccc4C3=O)c2c1 |  | inactive: 13.2%
COC(=O)c1c(NC(=S)Nc2ccccc2Cl)sc(C)c1C | inconclusive [inhibitor, single point] | 
CC(C)(C)OC(=O)NCCCC[C@H](NC(=O)c1nc[nH]c1C(=O)NCc1ccc(CNC(=O)OC(C)(C)C)cc1)C(=O)OC(C)(C)C | inconclusive [inhibitor, single point] | 
O=C(COc1cccc(Cl)c1)Nc1nc(-c2ccc(S(=O)(=O)N3CCOCC3)cc2)cs1 | active: 20.6 µM | 
O=C(CCc1nc2sc3c(c2c(=O)[nH]1)CCCC3)Nc1cccc(Cl)c1 | inconclusive [inhibitor, full curve, poor fit] | 
COc1ccc(C(=O)CC(Nc2ccc([N+](=O)[O-])cc2)c2ccc(Cl)cc2)cc1 (centres undefined) | inconclusive [inhibitor, single point] | 
O=C(OCCO)c1ccccc1O |  | inactive: 13.8%
N#Cc1sc2nccc(Nc3ccccc3)c2c1N | inconclusive [inhibitor, full curve] | 

Structure (SMILES) | Potency | activity change, negative = growth inhibition
Cc1sc2nc3c4ccccc4c(NCc4ccco4)nn3c(=O)c2c1C | inconclusive [inhibitor, single point] | 
Cc1ccc(-c2cc(=O)c3cc(C)ccc3[nH]2)cc1 | active: 5.17 µM | 
CN(C)C(=O)c1ccc(-c2nc(-n3ccnc3)c3ccccc3n2)cc1 | inconclusive [inhibitor, single point] | 
CC(=O)c1ccc(-n2c(C)c(C(C)=O)c3cc(O)ccc32)cc1 | inconclusive [inhibitor, single point] | 
Cn1cc(-c2nc3cnc(N4CCNCC4)nc3n(-c3ccccc3)c2=O)c2ccccc21 |  | inactive: 1.04%
CS(=O)(=O)Nc1cccc(-c2nc(Nc3ccncc3)c3ccccc3n2)c1 | inconclusive [inhibitor, single point] | 
CCCCn1cc(S(=O)(=O)c2ccc(Cl)cc2)c(=O)c2cc(F)c(N3CCCCC3)cc21 | active: 11.6 µM | 
CC(=O)c1c(C)[nH]c(C(=O)COC(=O)c2c(-c3ccccc3)noc2C)c1C | inconclusive [inhibitor, single point] | 
O=[N+]([O-])c1ccc(S(=O)(=O)Nc2ccc(S(=O)(=O)N3CCCC3)cc2)cc1 |  | inactive: -21.8%
Cn1c(SCc2ccc(F)cc2)nc2ccc(C(=O)NCc3ccccc3)cc21 |  | inactive: -25.7%
CCN1CCN(C(=O)c2ccc(COc3cccc(Cl)c3)o2)CC1 | inconclusive [inhibitor, single point] | 
COc1ccccc1/C=C(/C(=O)OCC(=O)Nc1ccccc1C(C)C)c1ccccc1 | inconclusive [inhibitor, single point] | 
Oc1c(N=NC(=S)Nc2ccccc2F)c2ccccc2n1Cc1ccc(F)cc1 | active: 5.17 µM | 
Oc1ccc(N=Nc2n[nH]c(-c3ccccc3)n2)cc1 |  | inactive: -3.34%
C[C@@H]1CC=C[C@H]2[C@H]1C(=O)N(Cc1ccccc1)[C@H]2c1ccc(F)c(-c2ccc(N(C)C)cc2)c1 | active: 8.2 µM | 
CCC(C)(C)C1CCC2(CC1)NC(=O)N(CC(=O)N(C)CC(=O)Nc1ccccc1C(F)(F)F)C2=O (centres undefined) | active: 23.1 µM | 
CCn1nnc(-c2ccccc2NC(=O)c2cc(OC)cc(OC)c2)n1 | inconclusive [inhibitor, partial curve] | 
c1cncc(CNc2nc(-c3ccoc3)nc3ccccc23)c1 | inconclusive [inhibitor, single point] | 
COc1cc2c(-c3ccccc3Cl)nc3c(c(C)nn3-c3ccccc3)c2cc1OC | inconclusive [inhibitor, single point] | 
COc1ccc2cc(C3CC=C(CO)CN3S(=O)(=O)c3ccccc3[N+](=O)[O-])n(C(=O)OC(C)(C)C)c2c1 (centres undefined) | active: 23.1 µM | 
CCN(C(=O)CN1C(=O)NC(c2ccccc2)(c2ccc(C)c(C)c2)C1=O)C1CCS(=O)(=O)C1 (centres undefined) |  | inactive: 0.954%
CCOC(=O)c1c(-c2ccc(OC)c(OC)c2)csc1NC(=O)c1ccc(F)cc1 |  | inconclusive: -26.7% [inhibitor]
O=C(CC1SC(=Nc2ccc3c(c2)OCCO3)NC1=O)Nc1ccc(F)cc1F (centres undefined) | inconclusive [inhibitor, single point] | 
